Measurements: the supplement of paper PMC4967469
Lines with a small IC50 respond at low doses; a fit beyond the top or the lowest dose is shown as a bound at that dose. The AUC spans the tested range (256-fold, ending at the top dose) of the same fit: 1 means no effect, lower means more sensitive. The top dose, if marked as inferred, comes from the curve model; the source does not state it.

Compound: N.N.[Cl][Pt][Cl] [Cisplatin]
Assay: Viability of human cancer cell lines after 72 h of drug (GDSC screen)
Details: top dose inferred
Procedure: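 Human cancer cell lines in 384-well plates, medium with 10% serum, drug for 72 h over a 256-fold dose range (nine 2-fold or five 4-fold steps up to the top dose). Adherent lines were fixed and stained with the nucleic acid dye Syto60, suspension lines read with resazurin; signal relative to control wells, capped at 0 and 100%. One two-parameter sigmoid per drug and line, fitted in a mixed model over all curves with the slope shared within a line.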

| Cell Line | AUC | IC50 [µM] |
| --- | --- | --- |
| HT-1197 (bladder, adherent, top dose 10 µM) | 0.933 | > 10 |
| HT-1376 (bladder, adherent, top dose 10 µM) | 0.925 | > 10 |
| HUTU-80 (digestive system, adherent, top dose 10 µM) | 0.919 | > 10 |
| Hep 3B2_1-7 (liver, adherent, top dose 10 µM) | 0.905 | > 10 |
| Hey (ovary, adherent, top dose 10 µM) | 0.918 | > 10 |
| Hs633T (fibrosarcoma, adherent, top dose 10 µM) | 0.805 | 3.98 |
| Hs683 (glioma, adherent, top dose 10 µM) | 0.945 | > 10 |
| Hs746T (stomach, adherent, top dose 10 µM) | 0.868 | > 10 |
| Hs766T (pancreas, adherent, top dose 10 µM) | 0.885 | > 10 |
| Hs939-T (melanoma, adherent, top dose 10 µM) | 0.899 | > 10 |
| Hs-578-T (breast, adherent, top dose 10 µM) | 0.886 | > 10 |
| HuCCT1 (biliary tract, adherent, top dose 10 µM) | 0.944 | > 10 |
| HuH-7 (liver, adherent, top dose 10 µM) | 0.91 | > 10 |
| HuO9 (osteosarcoma, adherent, top dose 10 µM) | 0.857 | 9.65 |
| HuO-3N1 (osteosarcoma, adherent, top dose 10 µM) | 0.903 | > 10 |
| HuP-T3 (pancreas, adherent, top dose 10 µM) | 0.901 | > 10 |
| HuP-T4 (pancreas, adherent, top dose 10 µM) | 0.833 | 7.03 |
| IA-LM (large cell lung carcinoma, adherent, top dose 10 µM) | 0.903 | > 10 |
| IGR-1 (melanoma, adherent, top dose 10 µM) | 0.956 | > 10 |
| IGR-37 (melanoma, adherent, top dose 10 µM) | 0.865 | 7.58 |
| IGROV-1 (ovary, adherent, top dose 10 µM) | 0.877 | > 10 |

| Cell Line | AUC | IC50 [µM] |
| --- | --- | --- |
| IHH-4 (thyroid, semi-adherent, top dose 10 µM) | 0.8 | 3.76 |
| IM-9 (myeloma, suspension, top dose 10 µM) | 0.946 | > 10 |
| IMR-5 (neuroblastoma, adherent, top dose 10 µM) | 0.843 | 5.5 |
| IPC-298 (melanoma, adherent, top dose 10 µM) | 0.928 | > 10 |
| IST-MEL1 (melanoma, adherent, top dose 10 µM) | 0.889 | > 10 |
| IST-SL1 (small cell lung carcinoma, semi-adherent, top dose 10 µM) | 0.951 | > 10 |
| IST-SL2 (small cell lung carcinoma, suspension, top dose 10 µM) | 0.946 | > 10 |
| JEG-3 (urogenital system, adherent, top dose 10 µM) | 0.856 | 6.84 |
| JEKO-1 (B-cell lymphoma, suspension, top dose 10 µM) | 0.96 | > 10 |
| JHH-1 (liver, adherent, top dose 10 µM) | 0.967 | > 10 |
| JHH-2 (liver, adherent, top dose 10 µM) | 0.938 | > 10 |
| JHH-4 (liver, adherent, top dose 10 µM) | 0.887 | > 10 |
| JHH-6 (liver, adherent, top dose 10 µM) | 0.783 | 4.28 |
| JHH-7 (liver, adherent, top dose 10 µM) | 0.887 | > 10 |
| JHOS-2 (ovary, adherent, top dose 10 µM) | 0.946 | > 10 |
| JHOS-3 (ovary, adherent, top dose 10 µM) | 0.933 | > 10 |
| JHOS-4 (ovary, adherent, top dose 10 µM) | 0.872 | > 10 |
| JHU-011 (head and neck, adherent, top dose 10 µM) | 0.803 | 4.87 |
| JHU-022 (head and neck, adherent, top dose 10 µM) | 0.879 | > 10 |
| JHU-029 (head and neck, adherent, top dose 10 µM) | 0.735 | 3.47 |
| JIMT-1 (breast, adherent, top dose 10 µM) | 0.891 | > 10 |

| Cell Line | AUC | IC50 [µM] |
| --- | --- | --- |
| JJN-3 (haematopoietic neoplasm, suspension, top dose 10 µM) | 0.981 | > 10 |
| JM1 (B-cell lymphoma, suspension, top dose 10 µM) | 0.812 | 4.45 |
| JSC-1 (B-cell lymphoma, suspension, top dose 10 µM) | 0.926 | > 10 |
| JURL-MK1 (chronic myeloid leukaemia, suspension, top dose 10 µM) | 0.781 | 4.12 |
| JVM-2 (lymphoid neoplasm, suspension, top dose 10 µM) | 0.864 | > 10 |
| JVM-3 (lymphoid neoplasm, suspension, top dose 10 µM) | 0.738 | 3.03 |
| JiyoyeP-2003 (Burkitt lymphoma, suspension, top dose 10 µM) | 0.978 | > 10 |
| Jurkat (T-cell leukaemia, suspension, top dose 10 µM) | 0.949 | > 10 |
| K2 (melanoma, adherent, top dose 10 µM) | 0.885 | > 10 |
| K5 (thyroid, adherent, top dose 10 µM) | 0.781 | 3.97 |
| KARPAS-45 (lymphoblastic leukaemia, suspension, top dose 10 µM) | 0.986 | > 10 |
| KARPAS-231 (B-cell leukaemia, suspension, top dose 10 µM) | 0.822 | 4.18 |
| KARPAS-299 (anaplastic large cell lymphoma, suspension, top dose 10 µM) | 0.819 | 4.5 |
| KARPAS-422 (B-cell lymphoma, suspension, top dose 10 µM) | 0.978 | > 10 |
| KARPAS-620 (haematopoietic neoplasm, suspension, top dose 10 µM) | 0.991 | > 10 |
| KARPAS-1106P (B-cell lymphoma, suspension, top dose 10 µM) | 0.949 | > 10 |
| KASUMI-1 (acute myeloid leukaemia, suspension, top dose 10 µM) | 0.949 | > 10 |
| KATOIII (stomach, semi-adherent, top dose 10 µM) | 0.959 | > 10 |
| KCL-22 (chronic myeloid leukaemia, suspension, top dose 10 µM) | 0.961 | > 10 |
| KE-37 (lymphoblastic leukaemia, suspension, top dose 10 µM) | 0.851 | 5.04 |
| KELLY (neuroblastoma, adherent, top dose 10 µM) | 0.917 | > 10 |

| Cell Line | AUC | IC50 [µM] |
| --- | --- | --- |
| KGN (ovary, adherent, top dose 10 µM) | 0.897 | > 10 |
| KINGS-1 (glioma, adherent, top dose 10 µM) | 0.899 | > 10 |
| KLE (endometrium, adherent, top dose 10 µM) | 0.951 | > 10 |
| KM12 (large intestine, adherent, top dose 10 µM) | 0.956 | > 10 |
| KM-H2 (Hodgkin lymphoma, suspension, top dose 10 µM) | 0.966 | > 10 |
| KMH-2 (thyroid, adherent, top dose 10 µM) | 0.9 | > 10 |
| KMOE-2 (acute myeloid leukaemia, suspension, top dose 10 µM) | 0.929 | > 10 |
| KMRC-1 (kidney, adherent, top dose 10 µM) | 0.961 | > 10 |
| KMRC-20 (kidney, adherent, top dose 10 µM) | 0.89 | > 10 |
| KMS-11 (myeloma, suspension, top dose 10 µM) | 0.919 | > 10 |
| KMS-12-BM (myeloma, suspension, top dose 10 µM) | 0.953 | > 10 |
| KNS-42 (glioma, adherent, top dose 10 µM) | 0.912 | > 10 |
| KNS-62 (lung squamous cell carcinoma, adherent, top dose 10 µM) | 0.854 | > 10 |
| KNS-81-FD (glioma, adherent, top dose 10 µM) | 0.971 | > 10 |
| KON (head and neck, adherent, top dose 10 µM) | 0.903 | > 10 |
| KOPN-8 (B-cell leukaemia, suspension, top dose 10 µM) | 0.853 | 6.16 |
| KP-1N (pancreas, adherent, top dose 10 µM) | 0.905 | > 10 |
| KP-2 (pancreas, adherent, top dose 10 µM) | 0.977 | > 10 |
| KP-3 (pancreas, adherent, top dose 10 µM) | 0.878 | > 10 |
| KP-N-YN (neuroblastoma, adherent, top dose 10 µM) | 0.981 | > 10 |
